{"source": "paper PMC4336329", "about": "(PLoS ONE, 2015)", "note": "The campaign covered roughly 310,000 compounds. About 2,200 (0.71%) showed an effect of 50% or more. The effect is printed as a negative number. This is one part of the list.", "data": [{"biological_target": "human ether-à-go-go-related gene (hERG) potassium channel (human, UniProt Q12809)", "sequence (Q12809 whole entry, looked up)": "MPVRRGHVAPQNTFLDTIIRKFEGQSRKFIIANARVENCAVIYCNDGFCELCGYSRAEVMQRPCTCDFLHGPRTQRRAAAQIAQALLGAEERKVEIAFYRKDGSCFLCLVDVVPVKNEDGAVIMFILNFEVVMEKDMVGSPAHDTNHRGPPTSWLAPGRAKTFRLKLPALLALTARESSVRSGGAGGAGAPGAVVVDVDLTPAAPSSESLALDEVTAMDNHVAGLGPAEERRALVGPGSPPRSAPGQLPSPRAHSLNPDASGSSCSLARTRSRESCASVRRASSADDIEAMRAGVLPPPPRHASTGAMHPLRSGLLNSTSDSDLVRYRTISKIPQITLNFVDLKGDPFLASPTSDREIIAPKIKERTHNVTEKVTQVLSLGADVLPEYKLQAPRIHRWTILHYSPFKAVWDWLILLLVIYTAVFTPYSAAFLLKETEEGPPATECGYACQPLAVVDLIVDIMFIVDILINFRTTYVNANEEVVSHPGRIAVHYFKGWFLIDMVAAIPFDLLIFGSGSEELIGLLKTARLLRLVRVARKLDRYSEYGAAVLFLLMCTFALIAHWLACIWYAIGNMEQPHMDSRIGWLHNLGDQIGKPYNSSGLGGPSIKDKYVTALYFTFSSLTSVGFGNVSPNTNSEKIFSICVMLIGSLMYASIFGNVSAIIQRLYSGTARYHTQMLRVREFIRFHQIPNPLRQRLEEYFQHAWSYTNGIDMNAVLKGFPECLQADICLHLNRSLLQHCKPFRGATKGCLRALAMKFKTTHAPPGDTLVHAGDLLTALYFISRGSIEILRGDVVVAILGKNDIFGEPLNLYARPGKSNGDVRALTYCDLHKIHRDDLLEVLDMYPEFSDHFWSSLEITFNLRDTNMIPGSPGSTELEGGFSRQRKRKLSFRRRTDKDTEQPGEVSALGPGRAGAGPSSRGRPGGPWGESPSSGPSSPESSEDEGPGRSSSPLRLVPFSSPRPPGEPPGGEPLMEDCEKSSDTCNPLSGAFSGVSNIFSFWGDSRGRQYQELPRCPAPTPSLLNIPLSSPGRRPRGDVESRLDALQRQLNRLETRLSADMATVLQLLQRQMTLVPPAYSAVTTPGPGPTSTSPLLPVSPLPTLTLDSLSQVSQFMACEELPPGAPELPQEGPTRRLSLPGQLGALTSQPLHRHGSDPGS", "assay": "primary screen, population patch clamp on CHO cells stably expressing hERG", "units": {"hERG current change (%, negative = inhibition) at 1uM": "%"}, "values": [{"smiles": "Cc1ccc2[nH]c(O)c(N=Nc3nc4ccccc4s3)c2c1", "hERG current change (%, negative = inhibition) at 1uM": 8.13}, {"smiles": "O=C1CNC(=O)N1", "hERG current change (%, negative = inhibition) at 1uM": 8.51}, {"smiles": "Cc1cccc(C)c1OCC(=O)Nc1ncn[nH]1", "hERG current change (%, negative = inhibition) at 1uM": 17.9}, {"smiles": "Cl.Oc1ccccc1CNCC12CC3CC(CC(C3)C1)C2", "hERG current change (%, negative = inhibition) at 1uM": 12.9}, {"smiles": "CCc1ccccc1NC1c2ccccc2C(=O)N1c1cc(C)ccn1", "note": "(stereo not shown)", "hERG current change (%, negative = inhibition) at 1uM": 9.81}, {"smiles": "Cc1nccn1CC(=O)N/N=C/c1ccccc1O", "hERG current change (%, negative = inhibition) at 1uM": -1.35}, {"smiles": "COc1cccc(-c2c(C(=O)N/N=C(\\C)COc3ccccc3)nnn2-c2nonc2N)c1", "hERG current change (%, negative = inhibition) at 1uM": 6.96}, {"smiles": "CCOC(=O)N1CCN(C(=O)CSCC(=O)Nc2nc(-c3ccc(C)cc3)cs2)CC1", "hERG current change (%, negative = inhibition) at 1uM": 1.87}, {"smiles": "ClC1CCCCC1n1nnc2ccccc21", "note": "(stereo not shown)", "hERG current change (%, negative = inhibition) at 1uM": 12.9}, {"smiles": "CCOC(=O)C1(Cc2cccc(OC)c2)CCN(CC2CC=CCC2)CC1", "note": "(stereo not shown)", "hERG current change (%, negative = inhibition) at 1uM": -50.6}, {"smiles": "O=C(NC1CCCc2c1cnn2-c1cc(F)cc(F)c1)c1cc[n+]([O-])cc1", "note": "(stereo not shown)", "hERG current change (%, negative = inhibition) at 1uM": -19.6}, {"smiles": "CCOc1ncccc1C(=O)NNC(=O)c1ccc(NS(=O)(=O)c2cccs2)cc1", "hERG current change (%, negative = inhibition) at 1uM": 16.8}, {"smiles": "O=C(Nc1ccc2c(c1)OCO2)c1ccccc1", "hERG current change (%, negative = inhibition) at 1uM": 13}, {"smiles": "Cc1cc(NC(=O)CCC(=O)N(c2ccccc2)C(C(=O)NCC2CCCO2)c2cccnc2)no1", "note": "(stereo not shown)", "hERG current change (%, negative = inhibition) at 1uM": -0.442}, {"smiles": "Cc1ccccc1CC(=O)N(CCN(C)C)CC1CCCN(Cc2ccccc2F)C1", "note": "(stereo not shown)", "hERG current change (%, negative = inhibition) at 1uM": 12.8}, {"smiles": "Cn1c(=O)n(Cc2ccccc2)c(=O)c2c1nc1n2CCCN1Cc1ccccc1", "hERG current change (%, negative = inhibition) at 1uM": -1.88}, {"smiles": "COc1ccc(S(=O)(=O)Nc2ccc(-c3ccc4nnc(C)n4n3)cc2)c(OC)c1", "hERG current change (%, negative = inhibition) at 1uM": 8.78}, {"smiles": "CCOc1ccccc1N1CCN(C(=O)C(F)(F)F)CC1", "hERG current change (%, negative = inhibition) at 1uM": 9.94}, {"smiles": "CCOC(=O)C1=C(C)NC(=O)NC1c1c(C)nn(-c2ccccc2)c1Cl", "note": "(stereo not shown)", "hERG current change (%, negative = inhibition) at 1uM": 9.55}, {"smiles": "Nc1sc(-c2ccccc2)cc1-c1n[nH]c(=S)n1C1CCCCC1", "hERG current change (%, negative = inhibition) at 1uM": 17.6}, {"smiles": "O=C(CSc1nc(Nc2ccccc2)nc(N2CCOCC2)n1)Nc1ccc2c(c1)OCCO2", "hERG current change (%, negative = inhibition) at 1uM": -2.24}, {"smiles": "CCCC(=O)OCC(=O)Nc1ccc(N=Nc2ccccc2)cc1", "hERG current change (%, negative = inhibition) at 1uM": 0.385}, {"smiles": "CN(C)c1cc(Cl)c2nonc2c1N", "hERG current change (%, negative = inhibition) at 1uM": 3.88}, {"smiles": "O=[N+]([O-])c1cc(F)c2cccnc2c1O", "hERG current change (%, negative = inhibition) at 1uM": 13.7}, {"smiles": "CC(=O)c1ccc(NC(=O)/C(=C\\c2ccc(F)cc2)NC(=O)c2ccco2)cc1", "hERG current change (%, negative = inhibition) at 1uM": 1.89}]}]}
